PMC4336329 (PLoS ONE, 2015)
Hit rate of the full screen: of about 310,000 compounds, about 2,200 (0.71%) showed an effect of 50% or more. Effects have a minus sign here. The list shows a part of the results.

Each molecule was assayed against human ether-à-go-go-related gene (hERG) potassium channel (human, UniProt Q12809) (assay: primary screen, population patch clamp on CHO cells stably expressing hERG).
human ether-à-go-go-related gene (hERG) potassium channel, sequence (Q12809 whole entry, looked up): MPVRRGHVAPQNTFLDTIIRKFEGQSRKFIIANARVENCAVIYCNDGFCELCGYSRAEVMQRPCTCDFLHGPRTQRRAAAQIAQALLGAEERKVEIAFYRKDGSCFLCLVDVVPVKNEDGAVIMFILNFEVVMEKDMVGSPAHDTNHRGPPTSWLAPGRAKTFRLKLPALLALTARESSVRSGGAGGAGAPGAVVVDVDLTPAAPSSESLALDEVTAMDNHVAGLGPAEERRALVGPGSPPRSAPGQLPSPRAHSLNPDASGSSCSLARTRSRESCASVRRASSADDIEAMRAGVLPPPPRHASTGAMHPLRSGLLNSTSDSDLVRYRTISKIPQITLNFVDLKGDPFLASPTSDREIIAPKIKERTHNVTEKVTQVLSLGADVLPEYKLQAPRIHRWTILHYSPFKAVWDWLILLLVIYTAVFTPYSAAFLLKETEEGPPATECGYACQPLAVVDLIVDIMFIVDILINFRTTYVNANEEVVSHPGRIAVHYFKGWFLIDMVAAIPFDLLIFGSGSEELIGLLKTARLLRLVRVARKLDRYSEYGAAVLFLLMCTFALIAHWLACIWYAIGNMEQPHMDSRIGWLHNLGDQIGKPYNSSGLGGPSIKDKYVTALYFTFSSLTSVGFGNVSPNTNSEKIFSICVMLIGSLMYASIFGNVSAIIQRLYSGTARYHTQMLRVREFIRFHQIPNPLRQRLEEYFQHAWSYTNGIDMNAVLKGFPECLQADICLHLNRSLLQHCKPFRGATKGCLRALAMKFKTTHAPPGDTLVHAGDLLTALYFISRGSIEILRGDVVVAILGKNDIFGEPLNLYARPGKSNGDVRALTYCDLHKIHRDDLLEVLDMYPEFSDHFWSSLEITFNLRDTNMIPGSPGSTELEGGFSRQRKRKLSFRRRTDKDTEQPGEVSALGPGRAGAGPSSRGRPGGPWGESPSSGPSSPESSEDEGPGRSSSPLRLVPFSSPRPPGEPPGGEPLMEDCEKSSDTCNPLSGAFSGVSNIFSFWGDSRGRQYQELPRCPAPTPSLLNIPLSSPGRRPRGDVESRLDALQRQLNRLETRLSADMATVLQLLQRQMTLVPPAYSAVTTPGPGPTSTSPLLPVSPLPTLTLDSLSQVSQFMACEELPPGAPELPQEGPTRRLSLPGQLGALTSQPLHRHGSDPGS

Row | Compound | hERG current change (%, negative = inhibition) at 1uM [%]
1 | CCOC(=O)c1cccc(NC(=O)CN2C(=O)C3C4C=CC(C4)C3C2=O)c1 (stereo not shown) | -9.79
2 | COc1ccccc1C(=O)NC(CCSC)C(=O)NNC(=O)c1ccccc1O (stereo not shown) | 18
3 | CCOc1ccc2[nH]c(C(=O)N/N=C/c3ccc(OC)cc3)cc2c1 | 12.7
4 | CCc1c(C(=O)N/N=C/c2ccc(OCc3ccc(F)cc3)c(OC)c2)nnn1-c1nonc1N | 22.3
5 | CC(=O)C1=C(C)NC(=O)NC1c1cc(Br)ccc1OCC#N (stereo not shown) | 20.2
6 | CC(C)[C@H](NS(=O)(=O)c1cccc(C(F)(F)F)c1)C(=O)OCC(N)=O | 11.4
7 | COc1ccc(OCCCC(=O)Nc2cc(Cl)ccc2-n2cncn2)cc1 | -18.2
8 | CSCCC(NS(=O)(=O)c1ccc(Cl)cc1)C(=O)OCC(=O)c1ccc(F)cc1 (stereo not shown) | 4.34
9 | COc1ccc(/C=C2\Oc3cc(OCC(=O)N4CC(O)C[C@H]4C(=O)O)ccc3C2=O)c(OC)c1OC (stereo partly shown) | 10.4
10 | CCOC(=O)c1cnc(SCCN2CCOCC2)nc1N | 12.8
11 | CC(NC(=O)CCCn1cc([N+](=O)[O-])cn1)c1ccccc1 (stereo not shown) | 4.13
12 | COc1ccc2c(c1)C(C)CC(C)(C)N2C(=O)CSc1nc2ccccc2s1 (stereo not shown) | 11.2
13 | Nc1c(-c2ccc3c(c2)OCCO3)oc2ccccc2c1=O | 10.3
14 | CC1=CC(C)(C)Nc2ccc(OC(=O)CN3C(=O)C4CCCCC4C3=O)cc21 (stereo not shown) | -0.345
15 | CC(=O)OC(CC(=O)O)C[N+](C)(C)C.[Cl-] (stereo not shown) | 13.9
16 | O=C(NC1CCCCC1)C(c1ccco1)N(Cc1cccs1)C(=O)Cn1nnc2ccccc21 (stereo not shown) | 15.2
17 | CCOC(=O)c1oc2ccccc2c1NC(=O)COC | -5.28
18 | CCOCCC(=O)Nc1cc(Cl)ccc1OC | 1.9
19 | CCn1c(SCC(=O)Nc2ccc3c(c2)c2ccccc2n3CC)nnc1-c1ccco1 | 14.9
20 | Cc1cccc(NS(=O)(=O)c2cccc3cccnc23)n1 | 3.93
21 | CC(C)c1ccc2c(c1)C(N1CCN(C)CC1)Cc1cccnc1S2.O=C(O)/C=C\C(=O)O (stereo not shown) | -5.95
22 | CCCCn1c(N)c(N(CC(C)C)C(=O)COC(=O)Cc2cccc(OC)c2)c(=O)[nH]c1=O | 0.857

Row | Compound | hERG current change (%, negative = inhibition) at 1uM [%]
23 | Cc1ccc(C(=O)N/C(=C/c2ccco2)C(=O)N2CCC(C)CC2)cc1 | 15.2
24 | O=C(Nc1ccc(S(=O)(=O)Nc2ncccn2)cc1)c1ccccc1Cl | 10.7
25 | CCOc1ncccc1C(=O)Oc1ccc2c(c1)OCO2 | 5.71
26 | Cc1cccc(C2CC(c3ccc(Br)cc3)Nc3nc(N)nn32)c1 (stereo not shown) | -5.88
27 | O=C(CSc1ncnc2c1cnn2-c1ccc(F)cc1)NCc1ccc2c(c1)OCO2 | 17.3
28 | Cc1ccc(C)c(NC(=O)CCN2CCOCC2)c1 | 19.6
29 | N#Cc1ccccc1NC(=O)c1ccc(-c2ccccc2Cl)o1 | 7.1
30 | O=C(NCc1cccnc1)C(=O)NCC(c1ccco1)N1CCN(c2ccccc2F)CC1 (stereo not shown) | 11
31 | CC1(C)CC(=O)C2=C(C1)OC1=C(C(=O)CC(C)(C)C1)C2c1ccc(O)c([N+](=O)[O-])c1 | 8.7
32 | CC1CN(C(=O)c2cccc(S(=O)(=O)N3CCOCC3)c2)CC(C)O1 (stereo not shown) | 2.61
33 | CC(C)Sc1nc2ccccc2[nH]1 | 17
34 | CCOC(=O)c1c(C2COc3ccccc3O2)csc1NC(=O)c1ccco1 (stereo not shown) | 10.7
35 | O=C(O)C1CCCCC1C(=O)NCCCN1CCOCC1 (stereo not shown) | 10.1
36 | O=C(COc1ccccc1Cl)Nc1ccc(N2CCN(C(=O)c3ccccc3)CC2)cc1 | 3.72
37 | CCCCOc1ccc(C(=O)N/C(=C\c2ccc([N+](=O)[O-])cc2)C(=O)OCc2ccco2)cc1 | 7.09
38 | COc1ccc(C(=O)NCCc2nnc(SCC(=O)Nc3ccc(Br)cc3)n2C)cc1 | 14.7
39 | Cc1nc(NC(=O)CSc2nc(N)cc(N)n2)sc1C | 4.51
40 | c1ccc(-c2c(-c3ccccc3)n(Cc3ccco3)c3ncnc(NCCCn4ccnc4)c23)cc1 | -9.73
41 | O=C(Nc1ccccc1N1CCCCC1)C1CCN(S(=O)(=O)c2cccc(C(F)(F)F)c2)CC1 | 0.557
42 | N#Cc1c(NC(=O)c2ccc(Br)o2)n(-c2ccccc2)c2nc3ccccc3nc12 | 14.8
43 | O=C(CSc1nnc(NC(=O)C2CC(=O)N(c3ccc(F)cc3)C2)s1)NCC1CCCO1 (stereo not shown) | 11.7
